These results are taken from patent US7414110B2, “Human calcium channel compositions and methods” (Merck & Co., Inc., priority 1990, dated 2008).

In experiment [1] the target is T1, human neuronal calcium channel α1D, α2 and β1 subunits (Homo sapiens, UniProt Q01668, S1346F/Y1433H). The experiment is classed as cell-based. Details: Portions of these partial cDNA clones were ligated to generate a full-length α1D cDNA in a eukaryotic expression vector; expressed in transfected cells; host or cells: HEK 293 cells (ATCC CRL1573), transient.
In experiment [2] the target is T1, human neuronal calcium channel α1D, α2 and β1 subunits. The experiment is classed as cell-based. Details: Portions of these partial cDNA clones were ligated to generate a full-length α1D cDNA in a eukaryotic expression vector; expressed in transfected cells. The settings on record: Bay K 8644 1 μM.

For `COC(=O)C1=C(C)NC(C)=C([N+](=O)[O-])C1c1ccccc1C(F)(F)F` (centres unmarked) [Bay K 8644], in experiment [1], the “largest inward barium current” value is recorded as about 160 pA, the “magnitude of inward barium current” value is “significantly enhanced” and the tail currents result is “Pronounced tail currents”. For the same compound, in experiment [2], the tail current result was “augmented and prolonged tail current”.

For the compound `[Cd]` [cadmium], the “block of ~50 pA inward barium current” value in experiment [1] was “nearly completely blocked”.
